# PubChem BioAssay AID493208 (National Center for Advancing Translational Sciences (NCATS), 2011)
# The whole screen tested about 44,000 compounds, of which about 340 (0.77%) were called active. Not shown: some 5% with an inconclusive outcome. Calls follow the shape of the dose curve; as a rule, active = well fitted inhibition curve with a large enough effect; inconclusive = small, poorly fitted or top-dose-only effect; inactive = flat fitted curve, though single readings scatter. The list shows a part of the results.
# Assay: Acumen qHTS Assay for Inhibitors of the mTORC1 Signaling Pathway in MEF (Tsc2-/-, p53-/-) Cells: Sytravon;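 also: plate controls were DMSO for no effect and rapamycin for full effect; nearly all actives have a fitted effect of over 50% in size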
# Conditions: phospho-rpS6 immunofluorescence/PI, 24 h; series mostly up to 38.3 µM; activity change, negative = inhibition: at the top concentration
# Method in brief: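 Tsc2-/-, p53-/- mouse embryonic fibroblasts (empty-vector line) exposed to compound 24 hrs at 37 C, fixed, immunostained for phospho-rpS6 and counterstained with propidium iodide. Acumen laser scanning gives % positive cells from Alexa 488/PI ratio, thresholded using 7.5 nM rapamycin; PI count gives viability.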
row,Compound,"activity change, negative = inhibition"
1,COc1ccc(NC(=O)Cn2cc(C(=O)c3ccncc3)c(=O)c3cc(C)ccc32)cc1Cl,inactive: 2.15%
2,COc1ccc(CNC(=O)CCc2c(C)c3ccc(OC)c(C)c3oc2=O)cc1OC,inactive: 3.88%
3,Cc1cccc(Cn2c(SCc3ccc(C(=O)NCc4ccccc4)cc3)nc3cccnc32)c1,inactive: -0.541%
4,CCNC(=O)C1CCCN(c2ncnc3onc(C)c23)C1 (configuration not stated),inactive: 5.43%
5,COC(=O)c1ccc(-n2nnc(-c3nc(-c4ccccc4Cl)no3)c2C)cc1,inactive: 5.57%
6,COc1cc(OC)cc(C(=O)Nc2ccc(-c3nc4ccccc4s3)c(C)c2)c1,inactive: -2.38%
7,Cc1ccc(N2C(=O)CS(=O)(=O)C23C(=O)N(Cc2ccccc2C)c2ccccc23)cc1Cl (configuration not stated),inactive: 1.88%
8,CN1CCN(C(=O)Cn2c(-c3cccs3)cc3ccccc32)CC1,inactive: -9.17%
9,Cc1nc2ccn(Cc3ccco3)c(=O)c2cc1C(=O)Nc1ccc(F)cc1,inactive: -0.287%
10,COc1ccc(NC(=O)Cn2nc(-c3ccccc3)c3cnc4ccc(C)cc4c32)cc1,inactive: -13.5%
11,Cc1ccc(OCC(=O)Nc2ccc3c(c2)sc(=O)n3C)cc1,inactive: 2.41%
12,COc1ccc(-n2c(=O)[nH]c3cc(C(=O)NCCc4ccc(Cl)cc4)ccc3c2=O)cc1OC,inactive: -13.5%
13,CCOC(=O)c1c(NC(=O)COc2ccc(CC)cc2)sc2c1CCCC2,inactive: -0.191%
14,Cc1ccc(-c2nc(C(=O)N3CCN(c4ccccc4)CC3)c3n2CCCCC3)cc1,inactive: 4.44%
15,CCC(Sc1ncccc1C(=O)Oc1ccccc1Cl)C(=O)Nc1ccccc1OC (configuration not stated),inactive: -1.21%
16,COc1ccc(NC(=O)C(NC(=O)C2CCC(C)CC2)C(C)C)cc1 (configuration not stated),inactive: -1.76%
17,Cc1ccc2c(=O)c(C(=O)c3ccccc3)cn(CC(=O)Nc3ccc(C)c(Cl)c3)c2n1,inactive: 6.13%
18,CCCNC(=O)c1ccc2c(c1)nc(C)n2-c1cccc(C)c1,inactive: -8.94%
19,Cc1nn(C)c2c1c(C(F)(F)F)cc(=O)n2C(C)C(=O)NCCC(C)C (configuration not stated),inactive: 0%
20,Cc1ccc(-c2ccc(CCC(=O)O)n2-c2cccc(C)c2C)cc1,inactive: 0.0644%
21,CCOc1ccc(Br)cc1S(=O)(=O)Nc1cccc(-c2ccc(OC)nn2)c1,inactive: -1.9%

row,Compound,"activity change, negative = inhibition"
1,Cc1ccc(C)c(N2CCN(C(=O)CN3C(=O)COc4ccc(S(=O)(=O)N5CCC(C)CC5)cc43)CC2)c1,inactive: 1.17%
2,Cc1ccc(N2CCN(S(=O)(=O)c3ccc(-n4cnnn4)cc3)CC2)c(C)c1,inactive: -3.8%
3,COc1ccc(-n2c(=O)c3c4c(sc3n(Cc3ccc(C(C)(C)C)cc3)c2=O)CCC4)c(OC)c1,inactive: -0.254%
4,CCn1nnc2cc(C(=O)Nc3ccc(OC)cc3)ccc21,inactive: 9.8%
5,Cc1ccc(Cl)cc1N1CCN(C(=O)c2ccc3c(c2)N(Cc2ccccc2)CCS3)CC1,inactive: 0.363%
6,COc1ccc(CCNC(=O)c2cc(=O)[nH]c3ccc(S(=O)(=O)N4CCCCC4C)cc23)cc1OC (configuration not stated),inactive: -7.97%
7,Cc1cn2c(=O)cc(COC(=O)c3ccc(NC(=O)C(C)Oc4ccccc4)cc3)nc2s1 (configuration not stated),inactive: 10.3%
8,CCOCCCNC(=O)c1c(NC(=O)c2nc(SC)ncc2Cl)sc2c1CCCC2,inactive: 1.37%
9,Fc1ccc(Nc2c(-c3ccccn3)nc3ccc(Cl)cn23)cc1,inactive: -2.98%
10,O=C(Nc1cc(Cl)cc(Cl)c1)c1cc(S(=O)(=O)N2CCC3(CC2)OCCO3)ccc1F,inactive: -10.1%
11,O=C(NCCc1ccccc1)c1nn(-c2ccccc2Cl)nc1CO,inactive: -2.45%
12,COc1ccc(OC)c(NC(=O)CCNC(=O)Cn2cnc3ccccc3c2=O)c1,inactive: 8.46%
13,CCOC(=O)c1c(N)n(-c2cc(C)cc(C)c2)c2nc3ccccc3nc12,inactive: 7.59%
14,COc1cccc(NC(=O)Cc2csc(COc3cccc(C)c3)n2)c1,inactive: -2.11%
15,COCCn1c(C)cc(O)c(C(c2ccc(OC)cc2)N2CCN(c3ccccc3)CC2)c1=O (configuration not stated),inactive: 6.23%
16,Cc1ccc(C)c(-n2nnc(C(=O)Nc3ccc(Br)cc3)c2C)c1,inactive: -0.43%
17,Cc1ccc(-n2ncc3c(Nc4cccc(C(F)(F)F)c4)ncnc32)cc1C,inactive: 5.57%
18,Cc1cc2c(cc1S(=O)(=O)NCc1ccccc1Cl)OCC(=O)N2,inactive: -0.609%
19,COc1cccc(-c2nc(CS(=O)(=O)CC(=O)NCCc3ccc(Cl)cc3)c(C)o2)c1,inactive: 1.74%
20,Cc1cc(C)cc(NC(=O)COCc2cc(-c3ccc4c(c3)OCO4)on2)c1,inactive: -4.28%
21,COc1cccc(N2CCN(C(=O)C3CCN(S(=O)(=O)c4cn(C)cn4)CC3)CC2)c1,inactive: 15.8%

row,Compound,"activity change, negative = inhibition"
1,CCOCCn1c(=O)c2c(nc3n2CCN3c2ccc(C)c(C)c2)n(C)c1=O,inactive: -1.74%
2,CC1CCCCN1C(=O)CSc1c2c(nc3cc(Cl)ccc13)CCCC2 (configuration not stated),inactive: -21.5%
3,CC(C)c1ccc(NC(=O)c2cnc3sc(N4CCOCC4)nn3c2=O)cc1,inactive: 3.22%
4,NS(=O)(=O)c1ccc(NC(=O)c2csnn2)cc1,inactive: 0.671%
5,COc1ccc(OC)c(NC(=O)Cn2cnc3onc(-c4ccc(Cl)cc4)c3c2=O)c1,inactive: 23.6%
6,COc1ccc(NC(=O)CN(C)S(=O)(=O)c2ccc3c(c2)c(=O)n(C)c(=O)n3C)cc1,inactive: -2.31%
7,COc1ccc(-c2nc3ccc(Cl)cn3c2Nc2ccc(C)cc2)cc1,inactive: 6.34%
8,Cc1ccc(C(=O)NCC(c2ccco2)S(=O)(=O)c2ccc(Cl)cc2)cc1C (configuration not stated),inactive: -5.8%
9,CCCCNC(=O)c1cn(C)c2ccc(S(=O)(=O)N3CCCC3)cc2c1=O,inactive: -8.62%
10,COc1ccc(OCC2c3cc(OC)c(OC)cc3CCN2C(=O)c2c(F)cccc2F)cc1 (configuration not stated),inactive: -3.77%
11,CCc1ccc(-n2nc(CO)c(C(=O)NCc3cccs3)n2)cc1,inactive: 1.82%
12,Cc1ccc(NC(=O)CCn2c(=O)c3cccn3c3ccccc32)cc1Cl,inactive: -7.59%
13,O=C(CSc1nc(=O)n(Cc2ccco2)c2c1CCC2)NCc1ccc(Cl)cc1,inactive: -6.61%
14,COc1cc(OC)c(NC(=O)Cn2cnc3sc(C)c(S(=O)(=O)N4CCC(C)CC4)c3c2=O)cc1Cl,inactive: -13%
15,COc1ccc(N2CC(NC(=O)C(=O)c3c(C)[nH]c4ccccc34)CC2=O)cc1 (configuration not stated),inactive: -0.0434%
16,Cc1cc(C)c2nc(N(Cc3cccnc3)C(=O)Cc3ccccc3)sc2c1,inactive: -0.218%
17,Cc1cc(C)n(-c2nc3ccccc3nc2Nc2cc(Cl)ccc2C)n1,inactive: 2.09%
18,Cc1cc(NC(=O)Nc2nnc(N3CCCCC3)s2)ccc1Br,inactive: -1.14%
19,Cc1ccc(C(=O)N2CCN(Cc3cc(=O)n4nc(-c5ccccc5)sc4n3)CC2)cc1,inactive: -5.11%
20,COc1ccccc1CNC(=O)CSc1nc(=O)[nH]c2c1CCCC2,inactive: -2.03%
